Laboratory results reported in PubChem BioAssay AID488969 (Vanderbilt High Throughput Screening Facility, 2010).
Over roughly 110,000 compounds, “z-score” has its median near -0.1; the highest 2% begin near 2. The list shows a part of the results.

Each compound was assayed against Metabotropic glutamate receptor 8 (Rattus norvegicus) (UniProt P70579) (assay: rat mGluR8 modulators via GIRK flux, primary screen, cell-based, thallium flux, HTS (AID 488969)). Settings: HEK293 rat mGluR8, GIRK (G protein-gated inwardly rectifying potassium channel) thallium flux, FluoZin2; at 10 µM; stronger effect = higher value; submaximal glutamate (EC20) added with thallium.
Sequence of UniProt P70579 (P70579 whole entry, looked up): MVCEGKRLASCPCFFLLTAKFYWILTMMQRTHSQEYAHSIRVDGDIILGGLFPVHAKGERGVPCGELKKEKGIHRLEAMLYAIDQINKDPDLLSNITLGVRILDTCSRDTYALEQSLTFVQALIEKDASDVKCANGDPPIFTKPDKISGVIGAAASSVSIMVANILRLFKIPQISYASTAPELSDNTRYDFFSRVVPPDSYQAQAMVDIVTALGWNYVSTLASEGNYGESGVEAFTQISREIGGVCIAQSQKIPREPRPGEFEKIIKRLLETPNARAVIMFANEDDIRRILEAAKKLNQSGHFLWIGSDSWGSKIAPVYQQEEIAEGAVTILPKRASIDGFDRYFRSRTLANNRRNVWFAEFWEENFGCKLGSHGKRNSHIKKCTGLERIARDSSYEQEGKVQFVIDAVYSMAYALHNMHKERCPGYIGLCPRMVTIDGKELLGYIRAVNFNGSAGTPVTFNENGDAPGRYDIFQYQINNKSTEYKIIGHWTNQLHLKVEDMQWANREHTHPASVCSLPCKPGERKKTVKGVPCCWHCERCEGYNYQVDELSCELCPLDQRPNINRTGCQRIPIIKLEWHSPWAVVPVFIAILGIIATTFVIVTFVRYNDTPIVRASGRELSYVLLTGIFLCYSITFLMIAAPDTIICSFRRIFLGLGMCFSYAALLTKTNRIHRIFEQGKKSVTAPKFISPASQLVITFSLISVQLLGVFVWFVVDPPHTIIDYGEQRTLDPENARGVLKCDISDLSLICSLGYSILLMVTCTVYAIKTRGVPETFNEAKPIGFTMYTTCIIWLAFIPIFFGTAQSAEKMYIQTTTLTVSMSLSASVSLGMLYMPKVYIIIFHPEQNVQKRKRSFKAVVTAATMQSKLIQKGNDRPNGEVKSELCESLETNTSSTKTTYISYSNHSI

For CCCCCCNCc1c(F)cccc1Cl, which z-score is on record?
Its z-score is -0.733.

Which z-score does the source give for Cc1ccc(S(=O)(=O)N2CCCC2C(=O)Nc2nccs2)cc1 (stereo not drawn) here?
Its z-score is -0.579.

N#C/C(=C\Nc1ccccc1SC(F)(F)F)c1nc(-c2ccc(F)cc2)cs1 was tested. Which z-score did it give?
The z-score was 0.794.

COc1ccc(C/C(N)=N/OC(=O)COc2ccccc2C)cc1 was tested. Which z-score did it give?
Its z-score is 0.0355.

How did the z-score turn out when CCOc1ccc(C(CC(=O)O)NS(=O)(=O)c2ccc(C)cc2)cc1OC (stereo not drawn) was run?
Its z-score is 0.0551.

For CN1CCN(C(=S)Nc2ccc([N+](=O)[O-])cc2)CC1, which z-score is on record?
The z-score was -0.109.

With Cc1ccc(NC(=O)CN2CC(C)SC2=NC2CCCCC2)cc1 (stereo not drawn) as the compound, how does the z-score read?
Its z-score is 0.372.

With ONC(=Nc1ccc(Cl)cc1)c1ccc(Cl)cc1 as the compound, how does the z-score read?
The z-score was -0.122.

Which z-score does the source give for CC(=O)c1c(C(C)=O)c(C)n(-c2ccc(C(=O)O)cc2)c1C here?
Its z-score is 0.0344.

Nn1c(SCC(=O)N2CCCCC2)nnc1-c1ccncc1 was tested. Which z-score did it give?
Its z-score is -0.383.

CC(=O)c1c(C)[nH]c(C(=O)OCC(=O)N2CCc3ccccc32)c1C was tested. Which z-score did it give?
The z-score was -0.754.

How did the z-score turn out when CN=C1S/C(=C\c2cn(C(C)=O)nc2-c2ccccc2)C(=O)N1C was run?
The z-score was -0.262.

For CN1CCN(CC#CC2(O)CCCCC2)CC1, which z-score is on record?
The z-score was -0.162.

For CC1(C)CC(=O)N(c2ccccc2)C1(C)O (stereo not drawn), which z-score is on record?
The z-score was -0.532.

For O=C1CN(S(=O)(=O)c2ccccc2)CCN1S(=O)(=O)c1ccccc1, which z-score is on record?
Its z-score is -0.202.

Which z-score does the source give for Cc1ccc2c(c1)C(c1ccccc1)N(C(=O)c1ccc(Br)o1)CC(=O)N2 (stereo not drawn) here?
The z-score was -0.894.

Which z-score does the source give for CCN(CC)C(NC(=O)Cc1ccccc1)C(Cl)(Cl)Cl (stereo not drawn) here?
Its z-score is -0.194.

How did the z-score turn out when C1=CC2CC1CC2CN1CCN(Cc2ccccc2)CC1 (stereo not drawn) was run?
The z-score was -0.14.

How did the z-score turn out when COc1ccc(/C=C(\NC(=O)c2ccc(OC)cc2)C(=O)NC(CCSC)C(=O)O)cc1 (stereo not drawn) was run?
Its z-score is -0.0378.

For CCOC(=O)N1N=C(CC)CC1(O)C(F)(F)F (stereo not drawn), which z-score is on record?
The z-score was 0.565.

COC(=O)c1c(C)[nH]c(C(=O)/C=C/c2ccc(Cl)cc2)c1C was tested. Which z-score did it give?
Its z-score is -0.0114.

With COc1ccc(OC)c(NC(=O)c2cccc(S(=O)(=O)N(Cc3ccccc3)c3ccccc3OC)c2)c1 as the compound, how does the z-score read?
Its z-score is -0.203.

For CCOC(=O)C(CSCc1ccccc1)NC(=O)OC(C)(C)C (stereo not drawn), which z-score is on record?
The z-score was -1.04.

With COc1ccc(NC(=O)c2ccc(=O)oc2)cc1 as the compound, how does the z-score read?
The z-score was -0.457.

With C=CCN(CC=C)C(=O)Cc1ccc(F)cc1 as the compound, how does the z-score read?
The z-score was -0.392.

For Fc1ccc(NC(=S)NN2CCOCC2)cc1Cl, which z-score is on record?
Its z-score is -0.351.

With Cc1ccc(S(=O)(=O)O/N=C2\CCCc3ccccc32)cc1 as the compound, how does the z-score read?
The z-score was -0.354.

O=C(Nc1ccc(N2CCN(C(=O)c3ccccc3)CC2)cc1)c1cc2ccccc2o1 was tested. Which z-score did it give?
The z-score was -0.123.

Which z-score does the source give for Cc1cc2ccccc2n1CCNC(=O)Cc1cccc2ccccc12 here?
The z-score was 0.079.

With O=c1cc[nH]c2c(C(F)(F)F)cccc12 as the compound, how does the z-score read?
Its z-score is -0.157.

For COc1ccc(C(=O)/C=C(/C)N(C)C)cc1, which z-score is on record?
Its z-score is 0.37.

With COc1cccc(C2c3c(oc4ccccc4c3=O)C(=O)N2CCCN(C)C)c1OC (stereo not drawn) as the compound, how does the z-score read?
The z-score was -0.0845.

For N#CC1(Nc2ccccc2)C(=O)Nc2ccccc21 (stereo not drawn), which z-score is on record?
The z-score was -0.288.

Which z-score does the source give for CCOC(=O)c1c(C)[nH]c(C)c1C(=O)COC(=O)c1ccc(Cl)c(S(N)(=O)=O)c1 here?
Its z-score is -0.149.

Which z-score does the source give for CCCn1c(O)c(CN2CCCC(C)C2)c(C)c(C#N)c1=O (stereo not drawn) here?
The z-score was 0.0972.

With CC(C)C(=O)Nc1cccc(C(=O)Nc2nncs2)c1 as the compound, how does the z-score read?
The z-score was 0.121.

Which z-score does the source give for Cc1onc(-c2c(Cl)cccc2Cl)c1C(=O)NCCN1CCOCC1 here?
The z-score was 0.787.

Which z-score does the source give for Cc1ccc(C)c(N2CCN(C(=S)NC3CCCCC3)CC2)c1 here?
Its z-score is 0.514.

How did the z-score turn out when Cc1ccc(S(=O)(=O)CCC(=O)NCCN2C(=O)S/C(=C\c3ccccc3)C2=O)cc1 was run?
The z-score was -0.13.

With CCN(CC)S(=O)(=O)c1csc(C(=O)NC2CCCCC2)c1 as the compound, how does the z-score read?
Its z-score is 0.101.

Cc1ccc(-c2csc3nnc(SCC(=O)NCc4ccc5c(c4)OCO5)n23)cc1 was tested. Which z-score did it give?
Its z-score is -0.53.

Which z-score does the source give for Cc1ccc(C(=O)OCC(=O)NC(=O)c2cccn2C)cc1 here?
Its z-score is -0.0462.

Cn1c(-c2ccccc2)c[n+]2c1-c1ccccc1C2 was tested. Which z-score did it give?
The z-score was -0.0447.

With COC(=O)Cc1c(O)ccn(Cc2ccc(F)cc2)c1=O as the compound, how does the z-score read?
The z-score was 0.00177.

With Cc1nc2ccc(S(=O)(=O)NCC(=O)N3CCC(C)CC3)cc2s1 as the compound, how does the z-score read?
Its z-score is -0.149.

Which z-score does the source give for S=C(NCCC(c1ccccc1)c1ccccc1)Nc1cccc(Cl)c1 here?
Its z-score is -0.0667.

With CC(=O)N1CCc2c(sc3c2c(=O)n(-c2ccccc2)c(=O)n3Cc2ccccc2Cl)C1 as the compound, how does the z-score read?
The z-score was -0.336.

For c1ccc2oc(SCc3cn4ccsc4n3)nc2c1, which z-score is on record?
The z-score was 0.0354.

With COCCCNC(=O)c1ccc(Cn2c(=O)c3ccccc3n(Cc3ccc(C)cc3)c2=O)cc1 as the compound, how does the z-score read?
Its z-score is 0.211.

For CCOc1ccc2nc(SCC#N)c(C#N)cc2c1, which z-score is on record?
Its z-score is 1.

How did the z-score turn out when CC(OC(=O)c1cc2sccc2n1C)C(=O)NCCc1ccccc1 (stereo not drawn) was run?
The z-score was -0.478.

With COC(=O)c1ccc(Sc2ccccc2NS(=O)(=O)c2ccc(C)cc2)nc1 as the compound, how does the z-score read?
The z-score was 1.05.

O=S(=O)(N/N=C\C=C\c1ccccc1)c1ccc(Cl)cc1 was tested. Which z-score did it give?
Its z-score is -0.13.

Which z-score does the source give for CN(C)S(=O)(=O)c1cccc(C(=O)C2=C3SC=C(c4ccccc4)N3CC2)c1 here?
The z-score was -0.584.

For Cc1ccc(-c2cc(C)nc3ncnn23)cc1, which z-score is on record?
Its z-score is -0.18.

For Cc1cccc(CCN(C(=O)Cc2cccs2)C(C(=O)NC2CCCCC2)c2cccnc2)c1 (stereo not drawn), which z-score is on record?
The z-score was -0.143.

Which z-score does the source give for COc1ccc(NC(=O)CN2CCOCC2)cc1 here?
The z-score was 0.139.

Which z-score does the source give for COc1ccc(-n2c(N)c(C(=O)NCc3ccco3)sc2=S)cc1 here?
Its z-score is 0.16.

With Cc1ccc(NC(=O)CCCN2C(=O)/C(=C/C=C/c3ccccc3)SC2=S)cc1 as the compound, how does the z-score read?
The z-score was -0.221.

For O=C(Sc1nnc(-c2ccccc2)o1)N1c2ccccc2Sc2ccccc21, which z-score is on record?
The z-score was 1.17.

O=[N+]([O-])c1ccc(N/N=C/c2cn(-c3ccccc3)nc2-c2ccccc2)cc1 was tested. Which z-score did it give?
Its z-score is 0.00805.

OCCN1CCN(CC(O)COc2ccc(-c3ccccc3)cc2)CC1 (stereo not drawn) was tested. Which z-score did it give?
The z-score was -0.0757.

For O=C(COC(=O)C1CC(=O)N(c2ccc3c(c2)OCCO3)C1)Nc1ccc2c(c1)CCC2 (stereo not drawn), which z-score is on record?
The z-score was -0.623.

Which z-score does the source give for O=C(Nc1ccc(Cl)cc1)c1cccnc1N1CCCCC1 here?
Its z-score is -0.771.

O=C(Nc1ccccc1)Nc1nc(-c2ccc(Cl)cc2)cs1 was tested. Which z-score did it give?
Its z-score is -0.373.

How did the z-score turn out when NC(=O)C1(N2CCCCC2)CCN(Cc2ccc(F)cc2)CC1 was run?
Its z-score is 0.0305.

O=C1CSC(c2ccc(Cl)cc2Cl)N1c1ccccn1 (stereo not drawn) was tested. Which z-score did it give?
The z-score was 0.145.

How did the z-score turn out when O=C(NCCCN1CCN(c2cccc(Cl)c2)CC1)c1ccc(N2CCCC2=O)cc1 was run?
The z-score was -0.352.

Which z-score does the source give for C=CCn1sc(N)c(C(=O)OCC)c1=S here?
Its z-score is 1.34.

How did the z-score turn out when CCOC(=O)c1ccc(NC(=O)Cc2coc3cc4c(cc23)CCC4)cc1 was run?
Its z-score is -0.247.

CCOC(=O)CSc1nnc(NC(=O)c2cccc([N+](=O)[O-])c2C)s1 was tested. Which z-score did it give?
The z-score was 0.774.

Which z-score does the source give for Cc1ccc2nc(NC(=O)c3ccc(Cn4cc(Cl)cn4)o3)sc2c1 here?
The z-score was -0.0112.

Cc1ccc(N2CC(C(=O)OCc3ccc([N+](=O)[O-])cc3)CC2=O)cc1 (stereo not drawn) was tested. Which z-score did it give?
The z-score was -0.517.
